# Test results published in the supplement of paper PMC4967469.
# By IC50 is meant the dose at which the fit gives 50% viability; fits outside the tested doses are given as limits. AUC, from the same fit, is the share of area under the viability curve across the 256-fold dose range: 1 means no effect, lower means more sensitive. For some of these results: A top dose marked as inferred is not printed in the source and was worked back from the curve model. For some of these results: Where an entry number is given, a second screen of the drug exists; the two often differ.
# Columns and labels:
# Assay in all cases: Viability of human cancer cell lines after 72 h of drug (GDSC screen)
# VNLG/124 = compound: CCCC(=O)OCc1ccc(OC(=O)/C=C(C)/C=C/C=C(C)/C=C/C2=C(C)CCCC2(C)C)cc1 [VNLG/124]; details: top dose 5.12 µM; top dose inferred
# Protocol: (§1)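 Human cancer cell lines in 384-well plates, medium with 10% serum, drug for 72 h over a 256-fold dose range (nine 2-fold or five 4-fold steps up to the top dose). Adherent lines were fixed and stained with the nucleic acid dye Syto60, suspension lines read with resazurin; signal relative to control wells, capped at 0 and 100%. One two-parameter sigmoid per drug and line, fitted in a mixed model over all curves with the slope shared within a line.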
# Masitinib = compound: Cc1ccc(NC(=O)c2ccc(CN3CCN(C)CC3)cc2)cc1Nc1nc(-c2cccnc2)cs1 [Masitinib]; details: top dose 20 µM
# Protocol: as §1
# Elesclomol = compound: CN(NC(=O)CC(=O)NN(C)C(=S)c1ccccc1)C(=S)c1ccccc1 [Elesclomol]; details: top dose 0.2 µM; top dose inferred
# Protocol: as §1
# Tamoxifen = compound: CC/C(=C(\c1ccccc1)c1ccc(OCCN(C)C)cc1)c1ccccc1 [Tamoxifen]; details: top dose 5 µM
# Protocol: as §1
# NSC-87877 = compound: O=S(=O)(O)c1ccc2cc(N=Nc3cc(S(=O)(=O)O)c4cccnc4c3O)ccc2c1 [NSC-87877]; details: top dose 16 µM; top dose inferred
# Protocol: as §1
# BX-912 = compound: O=C(Nc1cccc(Nc2ncc(Br)c(NCCc3cnc[nH]3)n2)c1)N1CCCC1 [BX-912]; details: top dose 10.24 µM; top dose inferred
# Protocol: as §1
# OSI-930 = compound: O=C(Nc1ccc(OC(F)(F)F)cc1)c1sccc1NCc1ccnc2ccccc12 [OSI-930]; details: top dose 10.24 µM
# Protocol: as §1
# LAQ824 = compound: O=C(/C=C/c1ccc(CN(CCO)CCc2c[nH]c3ccccc23)cc1)NO [LAQ824]; details: top dose 1.024 µM; top dose inferred
# Protocol: as §1
# Bleomycin = compound: Cc1c(N)nc([C@H](CC(N)=O)NC[C@H](N)C(N)=O)nc1C(=O)N[C@H](C(=O)N[C@H](C)[C@@H](O)[C@H](C)C(=O)N[C@H](C(=O)NCCc1nc(-c2nc(C(=O)NCCC[S+](C)C)cs2)cs1)[C@@H](C)O)[C@@H](OC1OC(CO)C(O)C(O)C1OC1OC(CO)C(O)C(OC(N)=O)C1O)c1cnc[nH]1 [Bleomycin]
# Protocol: as §1
# HG-5-88-01 = compound: COc1cc(N2CCC(C(N)=O)CC2)ccc1Nc1nc(N)c(Cl)c(Nc2ccccc2S(=O)(=O)C(C)C)n1 [HG-5-88-01]; details: top dose 10 µM; top dose inferred
# Protocol: as §1
# [1] = top dose 50 µM, screen: GDSC drug entry 1378, top dose inferred
# [2] = top dose 64 µM, screen: GDSC drug entry 190
Cell Line,AUC (VNLG/124),IC50 (VNLG/124) [µM],AUC (Masitinib),IC50 (Masitinib) [µM],AUC (Elesclomol),IC50 (Elesclomol) [µM],AUC (Tamoxifen),IC50 (Tamoxifen) [µM],AUC (NSC-87877),IC50 (NSC-87877) [µM],AUC (BX-912),IC50 (BX-912) [µM],AUC (OSI-930),IC50 (OSI-930) [µM],AUC (LAQ824),IC50 (LAQ824) [µM],AUC (Bleomycin; [1]),IC50 (Bleomycin; [1]) [µM],AUC (Bleomycin; [2]),IC50 (Bleomycin; [2]) [µM],AUC (HG-5-88-01),IC50 (HG-5-88-01) [µM]
"ALL-PO (lymphoblastic leukaemia, suspension)",0.859,4.65,0.871,> 20,0.365,0.00519,0.968,> 5,0.983,> 16,0.101,< 0.04,0.906,> 10.2,0.178,0.00634,0.94,> 50,0.304,1.09,0.879,> 10
"SHP-77 (small cell lung carcinoma, semi-adherent)",0.992,> 5.12,0.903,> 20,0.954,> 0.2,0.991,> 5,0.991,> 16,0.981,> 10.2,0.961,> 10.2,0.56,0.0914,0.88,42.3,0.937,> 64,0.964,> 10
"TK (B-cell lymphoma, suspension)",0.989,> 5.12,0.884,18.2,0.781,0.0755,0.987,> 5,0.989,> 16,0.935,> 10.2,0.981,> 10.2,0.406,0.0362,0.985,> 50,0.932,> 64,0.944,> 10
"RKO (large intestine, adherent)",0.986,> 5.12,0.902,> 20,0.579,0.0202,0.987,> 5,0.981,> 16,0.791,4.24,0.939,> 10.2,0.376,0.0299,0.788,20.2,0.234,0.731,0.981,> 10
"WSU-DLCL2 (B-cell lymphoma, suspension)",0.993,> 5.12,0.819,8.96,0.608,0.0234,0.569,0.467,0.947,> 16,0.821,4.66,0.929,> 10.2,0.989,> 1.02,0.491,2.97,0.503,4.08,0.417,0.385
"PCI-4B (head and neck, adherent)",0.984,> 5.12,0.896,> 20,0.475,0.0108,0.975,> 5,0.986,> 16,0.833,6.11,0.939,> 10.2,0.393,0.033,0.239,0.58,0.43,2.61,0.941,> 10
"GI-ME-N (neuroblastoma, adherent)",0.889,> 5.12,0.783,11.8,0.877,> 0.2,0.956,> 5,0.977,> 16,0.644,1.86,0.921,> 10.2,0.411,0.0333,0.173,0.209,0.284,0.773,0.664,2.13
"NUGC-4 (stomach, adherent)",0.976,> 5.12,0.948,> 20,0.939,> 0.2,0.985,> 5,0.985,> 16,0.967,> 10.2,0.966,> 10.2,0.525,0.0747,0.82,28.7,,,0.915,> 10
"BE-13 (lymphoblastic leukaemia, suspension)",0.968,> 5.12,0.783,7.86,0.874,0.173,0.974,> 5,0.983,> 16,0.36,0.27,0.894,> 10.2,0.36,0.027,0.916,> 50,0.246,0.79,0.918,> 10
"H3118 (head and neck, adherent)",0.975,> 5.12,0.899,> 20,0.576,0.0206,0.888,> 5,0.851,14.1,0.864,> 10.2,0.98,> 10.2,0.226,0.00931,0.205,0.379,0.37,1.69,0.732,3.07
"EFM-192A (breast, adherent)",0.973,> 5.12,0.981,> 20,0.906,> 0.2,0.961,> 5,0.985,> 16,0.958,> 10.2,0.974,> 10.2,0.391,0.031,0.982,> 50,0.107,< 0.25,0.984,> 10
"GAK (melanoma, adherent)",0.986,> 5.12,0.977,> 20,0.938,> 0.2,0.987,> 5,0.987,> 16,0.988,> 10.2,0.979,> 10.2,0.481,0.0571,0.818,26.4,0.855,47.2,0.945,> 10
"HCC-56 (large intestine, adherent)",0.985,> 5.12,0.836,13.8,0.787,0.0894,0.979,> 5,0.947,> 16,0.92,> 10.2,0.926,> 10.2,0.421,0.0387,0.862,44.4,0.038,< 0.25,0.894,> 10
"NCI-H1155 (large cell lung carcinoma, suspension)",0.991,> 5.12,0.932,> 20,0.355,0.00539,0.986,> 5,0.989,> 16,0.959,> 10.2,0.965,> 10.2,0.735,0.258,0.851,28.4,0.885,48.4,0.993,> 10
"CHSA0108 (chondrosarcoma, adherent)",0.983,> 5.12,0.955,> 20,0.734,0.0657,0.943,> 5,0.984,> 16,0.84,8.66,0.981,> 10.2,0.592,0.119,0.584,5.51,0.861,> 64,0.811,6.38
"NCI-H1770 (non-small cell lung carcinoma, suspension)",0.987,> 5.12,0.975,> 20,0.936,> 0.2,0.989,> 5,0.99,> 16,0.903,> 10.2,0.98,> 10.2,0.429,0.0421,0.969,> 50,0.571,6.09,0.879,8.06
"EN (endometrium, adherent)",0.975,> 5.12,0.937,> 20,0.592,0.0239,0.982,> 5,0.922,> 16,0.826,8.56,0.979,> 10.2,0.695,0.264,0.96,> 50,0.782,34.4,0.982,> 10
"SJRH30 (rhabdomyosarcoma, adherent)",0.986,> 5.12,0.898,> 20,0.365,0.00521,0.978,> 5,0.983,> 16,0.859,8.92,0.976,> 10.2,0.366,0.0269,0.829,32.5,0.248,0.731,0.705,2.42
"NCI-H1563 (lung adenocarcinoma, adherent)",0.98,> 5.12,0.864,> 20,0.345,0.00425,0.941,> 5,0.985,> 16,0.878,> 10.2,0.985,> 10.2,0.863,> 1.02,0.931,> 50,0.691,15.3,0.934,> 10
"WM-115 (melanoma, adherent)",0.982,> 5.12,0.753,8.07,0.622,0.0293,0.98,> 5,0.9,> 16,0.963,> 10.2,0.919,> 10.2,0.966,> 1.02,0.517,3.51,0.548,5.58,0.963,> 10
"NCI-H1694 (small cell lung carcinoma, suspension)",0.982,> 5.12,0.817,11.1,0.796,0.0928,0.987,> 5,0.979,> 16,0.728,2.84,0.953,> 10.2,0.498,0.0631,0.835,32.7,0.832,40.7,0.926,> 10
